Reference: patent US20210054095A1 (PHILOGEN S P A, published 2021)

Key:
[1] = molecular target: carbonic anhydrase IX (CAIX) as expressed on SKRC52 human renal cell carcinoma cells, SKRC52 tumour sections … (human, UniProt Q16790); assay: flow cytometry on SKRC52 cells, conjugate at 10 ug/mL, detected with rat anti-IL2 and anti-rat AlexaFluor488
Method: Antigen expression on SKRC52 cells was confirmed by flow cytometry. Cells were centrifuged and washed in cold FACS buffer (0.5% BSA, 2 mM EDTA in PBS) and stained with hIL2-XE114-hTNF^mut conjugate (final concentration 10 μg/mL) and detected with rat anti-IL2 followed by staining with anti-rat AlexaFluor488. IL2-KSF-TNF^mut (specific for an irrelevant antigen) was used as a negative control.

[2] = molecular target: extracellular domain of CAIX coated on an SA chip (Example 3) (human, UniProt Q16790 in part); assay: SPR (BIAcore X100), CAIX-coated SA chip, conjugate injected as serial dilutions
Method: Affinity measurements were performed by surface plasmon resonance using BIAcore X100 instrument using a CAIX coated SA chip. Samples were injected as serial-dilutions, in a concentration range from 1 mM to 62.5 nM. Regeneration of the chip was performed by HCl 10 mM.

B1: hIL2-XE114-hTNFmut conjugate (without the glycosylation motif) (other)
chain: [about 150 residues not shown]GDGSSGGSGGASEVQLLESGGGLVQPGGSLRLSCAASGFTFSSYAMSWVRQAPGKGLEWVSAIDGSGGSTYYADSVKGRFTISRDNSKNTLYLQMNSLRAEDTAVYYCVKGPPVFDYWGQGTLVTVSSGGGGSGGGGSGGGGSSELTQDPAVSVALGQTVRITCQGDSLRSYYASWYQQKPGQAPVLVIYGKNNRPSGIPDRFSGSSSGNTASLTITGAQAEDEADYYCQSSKWSWDPVVFGGGTKLTVLGSSSSGSSSSGSSSSG[about 150 residues not shown]
notes: Fusion of human IL2, linker, XE114 scFv (VL N88Q), linker and human TNF (R32A)
Q: Does B1 bind [1]?
A: binds

Q: Does B1 bind [2]?
A: binds
